Screen size: about 310,000 compounds; about 2,200 (0.71%) showed an effect of 50% or more. Effects have a minus sign here. Some of the results follow.
These compounds were tested against human ether-à-go-go-related gene (hERG) potassium channel (human, UniProt Q12809) (assay: primary screen, population patch clamp on CHO cells stably expressing hERG).
human ether-à-go-go-related gene (hERG) potassium channel, sequence (Q12809 whole entry, looked up): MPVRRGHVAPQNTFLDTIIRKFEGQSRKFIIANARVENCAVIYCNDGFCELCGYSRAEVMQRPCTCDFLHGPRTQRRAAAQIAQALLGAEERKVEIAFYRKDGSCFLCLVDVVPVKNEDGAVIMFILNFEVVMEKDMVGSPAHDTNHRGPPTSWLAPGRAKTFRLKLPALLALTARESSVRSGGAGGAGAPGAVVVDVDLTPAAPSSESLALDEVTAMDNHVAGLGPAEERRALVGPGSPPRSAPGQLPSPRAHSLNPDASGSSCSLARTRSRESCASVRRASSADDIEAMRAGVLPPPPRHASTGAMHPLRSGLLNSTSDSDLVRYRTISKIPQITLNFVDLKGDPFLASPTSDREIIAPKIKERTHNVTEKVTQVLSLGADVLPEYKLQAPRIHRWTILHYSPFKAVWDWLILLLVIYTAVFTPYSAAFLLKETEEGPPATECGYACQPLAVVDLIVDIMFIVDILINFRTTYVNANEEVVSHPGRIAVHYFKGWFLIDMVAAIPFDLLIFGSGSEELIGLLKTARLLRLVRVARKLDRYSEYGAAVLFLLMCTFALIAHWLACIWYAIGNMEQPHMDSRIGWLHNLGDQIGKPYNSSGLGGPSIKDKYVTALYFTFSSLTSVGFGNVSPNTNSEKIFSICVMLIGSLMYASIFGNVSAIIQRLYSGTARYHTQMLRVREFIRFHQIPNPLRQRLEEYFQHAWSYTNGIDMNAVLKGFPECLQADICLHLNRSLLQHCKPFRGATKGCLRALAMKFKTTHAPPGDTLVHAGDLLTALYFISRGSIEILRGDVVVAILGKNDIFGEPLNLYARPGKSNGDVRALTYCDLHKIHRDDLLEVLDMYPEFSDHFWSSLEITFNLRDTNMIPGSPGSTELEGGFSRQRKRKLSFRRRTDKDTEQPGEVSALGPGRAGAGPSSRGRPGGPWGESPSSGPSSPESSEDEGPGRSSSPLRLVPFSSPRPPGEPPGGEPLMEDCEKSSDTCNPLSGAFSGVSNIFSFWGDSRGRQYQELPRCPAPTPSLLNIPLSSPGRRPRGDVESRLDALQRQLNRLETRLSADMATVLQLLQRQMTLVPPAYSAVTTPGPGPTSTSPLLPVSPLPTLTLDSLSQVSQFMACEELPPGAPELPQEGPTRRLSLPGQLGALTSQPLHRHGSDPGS

SMILES	hERG current change (%, negative = inhibition) at 1uM [%]
CCC(C)[C@H](NS(=O)(=O)c1ccc(C)cc1)C(=O)N1CCC(C(=O)N[C@H](C(=O)O)c2ccccc2)CC1 (stereo partly drawn)	15.3
Cc1ccc2c(CN3CCN(Cc4ccc5c(c4)OCO5)CC3)cc(=O)oc2c1C	-4.32
Cc1cccc(NC(=O)CSc2ccc(-c3ccccn3)nn2)c1C	4.19
CCN(c1cccc2ccccc12)S(=O)(=O)c1ccc(Cl)nc1	3.11
O=C(NNc1cccc(Cl)n1)Nc1ccccc1	5.01
COCCn1c(C)cc(/C=C2/NC(=O)N(c3ccc(Cl)cc3)C2=O)c1C	7.62
Cc1ccc(CNC(=O)CCS(=O)(=O)c2ccc3c(c2)oc(=O)n3C)cc1	10.7
CCOc1ccc(/C=C2\CCc3ccccc3C2=O)cc1	15
COC1CCCCC1NCCc1ccccc1.O=C(O)C(=O)O (stereo not drawn)	5.61
Cc1ccc(S(=O)(=O)Nc2nc3ccccc3nc2Nc2cccc(S(=O)(=O)N3CCCC3)c2)cc1	9.48
CC1(c2cc([N+](=O)[O-])cc([N+](=O)[O-])c2)CC(C)(C)N(C(=O)c2ccccc2)c2ccccc21 (stereo not drawn)	13.4
CCCCn1c(N)c(N(CCC(C)C)C(=O)c2ccc3c(c2)OCO3)c(=O)[nH]c1=O	7.09
CCc1ccc(NC(=O)C2CCN(c3c(N4CCCC4)c(=O)c3=O)CC2)cc1	12.6
O=C(NCCN1CCCCCC1)c1ccc(CS(=O)(=O)c2ccc(Br)cc2)o1	-37.9
COc1ccc(/C=C(\C#N)C(=O)Nc2cc(C)c(Cl)cc2OC)cc1O	8.51
O=C1CN(C(=O)c2ccccn2)c2ccccc2N1	7.97
O=c1[nH]c2ccccc2n2cnnc12	17.8
CCCN(CCC)c1ccc(/C=C/c2ccc3cc(OCC)ccc3n2)cc1	4.1
CN1C(=O)C2C3c4ccccc4C(c4ccccc43)[C@@H]2C1=O (stereo partly drawn)	16.8
O=C1NC(=S)SC1=C1CCCCCC1	16.8
CCCS(=O)(=O)c1c(S(=O)(=O)CCC)c2cc(-c3ccncc3)ccn2c1C(=O)OC	-5.09
CCOc1ccc(N(CC(=O)NC2CCCCCC2)S(=O)(=O)c2ccccc2)cc1	-0.342
CCc1nc2sc3c(=O)n(N)cnc3c2c2c1COC(C)(C)C2	0.818
CCOc1ccc(CNC(=O)CCS(=O)(=O)c2ccc3c(c2)oc(=O)n3C)cc1	18.2
Cc1ccc(N=Cc2ccc[nH]2)c(O)c1	5.96
Cc1ccc(S(=O)(=O)N2CCN(C(=O)CN3C(=O)CNC3=O)CC2)cc1	7.34
O=C1/C(=C/c2cccnc2)SC(=S)N1N1CCOCC1	5.27

SMILES	hERG current change (%, negative = inhibition) at 1uM [%]
O=c1c2ccccc2oc2nc3n(c(=O)c12)CCCS3	12.9
O=C(CSc1cn(CCNC(=O)c2cccs2)c2ccccc12)NC1CCCCC1	8.93
COc1ccc(OC)c(-c2cc(C(=O)NCCN3CCOCC3)no2)c1	0.562
CCn1c(SCC(=O)NNC(=O)c2ccc(C)cc2)nnc1-c1ccncc1	-0.145
CCn1c(SCc2nc3sc(C(=O)O)c(C)c3c(=O)[nH]2)nnc1-c1ccc(Cl)cc1	7.84
O=C(C1CCCN(c2ncccn2)C1)N1CCc2ccccc21 (stereo not drawn)	-1.63
CC(=O)c1ccc(N2CCN(c3ncccn3)CC2)c([N+](=O)[O-])c1	4.76
Cc1cccc(NS(=O)(=O)c2ccc(C)c(C(=O)NCc3ccncc3)c2)c1	11
O=C(Nc1ccccc1)NC1CCN(Cc2ccccc2)CC1	-0.178
Cc1occc(=O)c1OC(=O)Nc1ccc(Cl)c(Cl)c1	12.6
COC(=O)C[C@H]1c2cc(C(F)(F)F)ccc2S(=O)(=O)N1C1CCCCC1	15.4
Cn1c(SCc2ccc([N+](=O)[O-])cc2)nnc1-c1ccncc1	-11.3
O=C(Cn1cnc2cc([N+](=O)[O-])ccc2c1=O)Nc1ccc(N2CCOCC2)cc1	4.05
COc1cc(CC(NC(C)=O)C(=O)NC2CCN(C(=O)c3cc(OC)c(OC)c(OC)c3)CC2)cc(OC)c1 (stereo not drawn)	-6.17
CC(C)NS(=O)(=O)c1ccc(CCC(=O)Nc2cc(Cl)ccc2Oc2ccccc2)cc1	12.3
O=C(NS(=O)(=O)c1ccc(Cl)s1)c1ccccc1	15.1
CCOc1ccc(C(C)=O)cc1COC(=O)c1ccc2c(c1)NC(=O)CS2	2.77
COC(=O)Nc1ccc(S(=O)(=O)N2CCCCCC2)cc1	9.77
O=C(CCCN1C(=O)/C(=C/c2ccccc2Cl)SC1=S)Nc1ccccn1	4.44
O=C1NC(c2ccccc2)(C(F)(F)F)C(=O)N1Cc1cccnc1 (stereo not drawn)	12.6
NC(=O)CC(NC(=O)Cc1ccc(Br)cc1)c1ccc(NC2CC3CCC2C3)c([N+](=O)[O-])c1 (stereo not drawn)	6.11
Cc1cc(C)nc(N=Nc2c(O)n(Cc3ccc(Cl)cc3)c3ccccc23)n1	11
CCN1C=CC(=C2C(=O)c3ccccc3C2=O)C=C1	-1.78
CCCCNC(=O)CCCCC(=O)N/N=C/c1ccccc1Cl	8.47
COc1c(Cl)cc(Cl)cc1CNc1ccc(S(N)(=O)=O)cc1	15.7
CCn1c(SCC(=O)N/N=C/c2c[nH]c3ccccc23)nnc1-c1ccc(C(C)(C)C)cc1	9.49
COC(=O)CSc1nnc(CNC(=O)c2ccccc2F)n1-c1ccccc1	8.18

— article PMC4336329 (PLoS ONE, 2015)
